In the supplement of paper PMC3334620:
Over roughly 33,000 sequences, “E-score (-0.5 to 0.5)” has its median near -0.041; the highest 2% begin near 0.37. Some of the results follow.

Molecular target: T1, Ecm22 (UniProt Q05958)
T1 sequence: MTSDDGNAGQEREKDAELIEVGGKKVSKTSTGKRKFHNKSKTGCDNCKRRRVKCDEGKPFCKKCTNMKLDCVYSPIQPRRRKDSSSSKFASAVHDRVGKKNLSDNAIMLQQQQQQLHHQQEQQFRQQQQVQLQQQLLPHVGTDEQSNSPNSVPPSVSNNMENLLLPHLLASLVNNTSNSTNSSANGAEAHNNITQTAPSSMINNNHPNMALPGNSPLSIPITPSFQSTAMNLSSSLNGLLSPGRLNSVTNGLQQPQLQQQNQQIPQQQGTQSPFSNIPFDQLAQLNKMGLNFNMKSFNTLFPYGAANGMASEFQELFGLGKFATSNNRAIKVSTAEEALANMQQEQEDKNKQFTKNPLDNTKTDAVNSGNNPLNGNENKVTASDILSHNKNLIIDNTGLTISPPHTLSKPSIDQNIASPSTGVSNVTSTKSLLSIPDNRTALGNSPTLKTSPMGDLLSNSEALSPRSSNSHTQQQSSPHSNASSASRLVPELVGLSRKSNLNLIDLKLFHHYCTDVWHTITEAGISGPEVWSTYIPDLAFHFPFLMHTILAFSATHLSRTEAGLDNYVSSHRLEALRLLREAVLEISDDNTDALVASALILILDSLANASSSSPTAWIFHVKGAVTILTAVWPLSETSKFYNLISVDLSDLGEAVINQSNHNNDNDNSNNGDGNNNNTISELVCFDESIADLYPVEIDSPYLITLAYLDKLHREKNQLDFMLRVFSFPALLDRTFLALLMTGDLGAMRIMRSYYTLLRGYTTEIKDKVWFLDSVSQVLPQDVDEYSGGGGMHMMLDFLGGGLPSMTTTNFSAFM
Experiment: PBM E-score (8-mer binding enrichment) (E-score (-0.5 to 0.5)); higher = stronger / more preferred TF binding; most listed sequences are background and not binding sites
Settings: protein concentration: 200 nM; construct: GST-full length
In short: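 PURExpress in vitro transcription/translation supplied GST-tagged yeast transcription factors, either full-length or DNA-binding domain. Applied at about 100-200 nM to universal all-10-mer Agilent arrays double-stranded by primer extension, the bound protein was detected with fluorescent anti-GST. E-scores, modified Wilcoxon-Mann-Whitney statistics, were given by the Universal PBM Analysis Suite to ungapped eight-base words pooled with their reverse complements after masliner normalisation.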

Sequence	PBM E-score
AGGCCAAC	0.0189
ATATAAAA	0.00487
AGAGGCCG	-0.116
CCGGCACA	-0.157
ACGGTTTA	0.0698
ACTTATCT	-0.0915
ATTGATGC	0.00312
GCATAACA	-0.00291
CGATCGAG	0.171
CACGAGAA	0.143
GACCTAGC	-0.189
GCGGTTAA	-0.0219
CCATCGGA	-0.0249
CTCGTGAA	0.213
GCTTTTAC	0.193
GTGAACGA	0.426
AGGAGGAG	-0.133
CTTTGATA	0.0249
CGGTGTTC	0.0923
CTTGTCTC	-0.117
CAAGATTA	-0.0926
CTCTGTGC	-0.146
CAAAAGAA	-0.00277
CCATGCTC	-0.163
AAAGCCCC	-0.191

Sequence	PBM E-score
CAAAGCAG	-0.125
AGGGGCGC	-0.156
AAGGAGCC	-0.343
AAACTTTC	-0.162
ACTTATAT	0.188
ATCTTTAA	0.123
ACAGGCGT	-0.24
ATACATGG	-0.0898
CAATCCCA	-0.25
CGCTTGAA	0.172
ACGTGAGG	-0.098
ATTAATGA	-0.0944
ATCAGAGG	-0.259
AAACAATC	-0.0512
AATTTACG	0.303
ACCAGTCG	0.169
AAGTCGGC	-0.184
CAGAGAAA	-0.102
ATCGTGTC	0.169
GCTCACAC	-0.123
GGTACGAA	0.486
AGGCGAAT	-0.02
ATGCTGGG	-0.224
GAGATGCA	0.0795
CAAACTAC	-0.0223

Sequence	PBM E-score
AGCTGCCA	-0.171
GCTCCCAC	-0.22
CGTTCCGC	0.458
CGCAACAG	-0.15
CCCACTTA	-0.15
CCAGATCG	0.079
ACATAGAA	-0.102
ATTTTCAA	-0.0671
AAGACAAA	-0.00529
CAGCGGAC	0.0106
ATACCTCA	-0.105
ATTACAAC	-0.0304
CTTTGATC	-0.186
CACTAAAG	-0.021
TAAAGGTA	-0.0447
CTGGATTC	-0.0312
ACTTCCTC	-0.0675
CAGCCCTG	-0.258
TCCCGTAA	0.224
CGACGCAG	0.166
AGAGAAAG	-0.136
GCTGAAGA	-0.0949
AACTGCAC	-0.114
AACAGCTG	-0.174
ATTGCTCA	-0.134

Sequence	PBM E-score
CAATCCGG	0.0027
CAGCTACC	-0.229
ATTTGCTC	-0.0361
AGATTGTG	-0.147
CACCTAAC	-0.164
CTGGTTTA	0.0282
TCTCGACA	0.00044
AGTACACA	0.18
GCTTTCGA	-0.046
CAACTGTA	-0.0431
CCACTTCG	0.0952
ATTGTTTC	0.0843
CCCGAGGA	0.0771
ATGTCAGG	-0.336
AGTCCGTA	0.242
GAAGAGCC	-0.035
CCCCTATC	-0.0953
ACTCGCAC	0.22
ACCGCACG	0.0338
ATATAGTG	0.105
GTTCACTA	0.148
CAATTGCG	-0.0414
CCCGTCGG	0.126
AATGTTCC	-0.12
AGGTCATC	-0.0582

Sequence	PBM E-score
GCCCCAAC	-0.0123
ACAGCCTA	-0.175
ATCAACTG	-0.132
AAGAGGTC	-0.207
GCCGTTAA	0.24
ACATAGCG	-0.133
CTTTGCAC	-0.035
CAGGAGAC	0.0295
GCATCCTA	-0.0684
ATAAGCCG	-0.178
GCGTTCAA	0.0639
CTTAAATC	-0.0752
TCAAGTAA	-0.225
CTCGTTCA	0.47
ATCCCAGG	-0.303
CCAGTTAC	-0.107
TGGCAAAA	-0.171
CCTAAAAA	-0.192
ACCAGACT	-0.124
ACAATTAT	0.132
ATTTGTGG	-0.0395
ACGAAGTG	0.288
TAGGTATA	0.181
AAATATGC	0.0499
CCGTATTA	0.316

Sequence	PBM E-score
GAATGGAC	-0.13
CCAACCGC	-0.12
AAATCCCA	-0.153
GGTGGCTA	-0.245
TCCGCCCA	-0.195
AAGATTAT	-0.0422
TAATACAA	0.0511
CCGGGTCC	-0.107
GATTATTA	0.0295
AATTTAGA	-0.0408
TTCTACAA	-0.0278
GTTGCAGA	-0.117
TCCCTTAA	-0.122
CATAGGCA	-0.258
CGCCTAGA	0.0521
GGTCCTAA	0.0335
TCCCCGAA	-0.245
GGGAAGTA	0.0119
CGCCCACG	-0.113
CCGCTGTA	-0.191
CAATCGCA	0.0817
ACGACTCA	0.238
TTAATTAA	-0.145
ATGGGCCG	-0.096
GTCACTTA	0.0991

Sequence	PBM E-score
GACGCATC	-0.00787
ACCCTGAC	-0.255
ATTCGTCA	-0.019
GGATCTGA	-0.00688
AGTGTGCG	0.0413
CCTTAGGC	-0.134
AGTATCTA	-0.122
ATGGTGTC	-0.129
ACGATTCC	0.289
CAATGGGA	-0.161
GTTATTGA	0.0873
ATGGTATC	0.109
GCTTAACA	-0.026
ATCGAGCC	0.0586
CGGCCCCA	-0.173
CTCACATA	-0.106
TAGTGGAA	-0.189
TCGGTGCA	0.00724
CATGCATA	-0.0391
TGAAGGCA	0.0109
CCGGCAGA	-0.0993
CGGCGATC	0.114
